Laboratory results published in the RNAGym collection of RNA variant scans (doi:10.1073/pnas.2313332121).
Variants at the floor of the assay are shown more often than the library holds them.

B1: TPR 5TU (parent)
chain: GGAUCUUCUCGAUCUAACAAAAAAGACAAAUCUGCCACAAAGCUUGAGAGCAUCUUCGGAUGCAGAGGCGGCAGCCUUCGGUGGCGCGAUAGCGCCAACGUUCUCAACUAUGACACGCAAAACGCGUGCUCCGUUGAAUGGAGUUUAUCAUG

Variants of: B1
Assay: polymerase ribozyme fitness, log enrichment relative to wild type (log ratio); higher = more active; in vitro selection for triplet polymerase activity
Method in brief: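 PCR was used to build mutant libraries for each subunit of a heterodimeric triplet polymerase ribozyme, which were then transcribed. A single in vitro selection round, in triplicate, used a frozen incubation at −7 °C and recovered extended constructs by gel excision, streptavidin beads and RT-PCR. Fitness is the logarithm of genotype enrichment relative to wild-type enrichment, averaged over replicates with inverse-variance weights. The logarithm is base 2, and after Illumina sequencing only genotypes with ≥10 input reads and ≥1 read per output were kept.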

Variant | polymerase ribozyme fitness (log ratio)
GGAUCUUCUCGAUCUAACAAAAAAGACAAAUCUGCCACAAAGCUUGAGAGCAUCUUCUGAUGCAGAGGCGGCAGCCUUCGAUGGCGCGAUAGCGCCAACGUUCUCAACUAUGACACGCAAAGCGCGUGCUCCGUUGAAUGGAGUUUAUCAUG [G58U G81A A122G] | -0.315
GGAUCUUCUCGAUCUAACAAAAAAGACAAAUCUGCCACAAAGCUUGAGAGCAUCUUCUGAUGCAGAGGCGGCAGCCUUCGGUGGCGCCAUAGCGCCAACGUUCUCAACUAUGACACGCAAAACGCGUGCGCCGUUGAAUGGAGUUUAUCAUG [G58U G88C U130G] | ≤ -4.2
GGAUCUUCUCGAUCUAACAAAAAAGACAAAUCUGCCACAAAGCUUGAGAGCAUCUUCUGAUGCAGAGGCGGCAGCCUUCGGUGGCGCGAUAGCGCCAACUUUCUCAACUAUGACACGCAAAUCGCGUGCUCCGUUGAAUGGAGUUUAUCAUG [G58U G100U A122U] | ≤ -4.2
GGAUCUUCUCGAUCUAACAAAAAAGACAAAUCUGCCACAAAGCUUGAGAGCAUCUUCUGAAGCAGAGGCGGCAGCCUUCGGUGGCGAGAUAGCGCCAACGUUGUCAACUAUGACACGCAAAACGCGUGCUCCGUUGAAUGGAGUUCAUCAUA [G58U U61A C87A C103G U146C G152A] | ≤ -4.2
GGAUCUUCUCGAUCUAACAAAAAAGACAAAUCUGCCACAAAGCUUGAGAGCAUCUUCGAAUGCAGGGGCGGCAGCCUUCGGUGGCGCGAUAGCGCUAACGUUCUCAACUAUGACACGCAAAACGCGUGCUCCGUUGAAUGGAUUUUAUCAUG [G59A A66G C96U G143U] | ≤ -4.2
GGAUCUUCUCGAUCUAACAAAAAAGACAAAUCUGCCACAAAGCUUGAGAGCAUCUUCGAAUGCAGAGGCGGCGGCCUUCGGUGGCACGAUAGCGCCAACGUUCUCAACUAUGACACCCAAAACGCUUGCUCCGUGGAAUGGAGCUUAUCAUG [G59A A73G G86A G117C G126U U135G U144C] | ≤ -4.2
GGAUCUUCUCGAUCUAACAAAAAAGACAAAUCUGCCACAAAGCUUGAGAGCAUCUUCGAAUGCAGAGGCGGCAGCCUUCGGUGGCGCGAUAGCGCCAACGUUCUCAACUAUGACACGCUAAACGCGUGCUCCGUUGAAUGGAGUUUAUCAUG [G59A A119U] | -0.778
GGAUCUUCUCGAUCUAACAAAAAAGACAAAUCUGCCACAAAGCUUGAGAGCAUCUUCGAAUGCAGAGGCGGCAGCCUUCGGUGGCGCGAUAGCGCCAACGUUCUCAACUAUGACACGCAAAACGCGUGCUCCGUUGAAUGGAGUUUUUCAUG [G59A A147U] | 1.25
GGAUCUUCUCGAUCUAACAAAAAAGACAAAUCUGCCACAAAGCUUGAGAGCAUCUUCGAAUGCAGAGGCGGCAGCCUUCGGUGGGGCGAUAGCGCCAACAUUCUCAACUAUGACUCGCAAAACGCGGGCUCCGUUGAAUGAAGUUUAUCAUG [G59A C85G G100A A115U U127G G141A] | ≤ -4.2
GGAUCUUCUCGAUCUAACAAAAAAGACAAAUCUGCCACAAAGCUUGAGAGCAUCUUCGAAUGCAGAGGCGGCAGCCUUCGGUGGUGCGAUAGCGCCAACGUUCUCAACUAUGACGCGCAAAACGCGUGCUCCGUUGAAUCGAGUUUAUCAUG [G59A C85U A115G G140C] | ≤ -4.2
GGAUCUUCUCGAUCUAACAAAAAAGACAAAUCUGCCACAAAGCUUGAGAGCAUCUUCGAAUGCAGAGGCGGCAGCCUUCGGUGGCGUGAUAGCGCCAACGGUCUCAACUAUGACACGCAAAACGCGUGCUCCGUUCAAUGGAGUUUAUCAUG [G59A C87U U101G G136C] | -2.91
GGAUCUUCUCGAUCUAACAAAAAAGACAAAUCUGCCACAAAGCUUGAGAGCAUCUUCGAAUGCAGAGGCGGCAGCCUUCGGUGGCGCGAUAGAGCCAACGUUCUCAACUAUGACACGCAAAACGCGUGCUCCGUUGAAUGGAGUUUAUCAUG [G59A C93A] | -3.22
GGAUCUUCUCGAUCUAACAAAAAAGACAAAUCUGCCACAAAGCUUGAGAGCAUCUUCGAAUGCAGAGGCGGCAGCCUUCGGUGGCGCGAUAGAGCCAACGUUCUCAACUAUGACACGCAAAACGCGUGCUCCGUCGAAUGGAGUUAAUCAUG [G59A C93A U135C U146A] | -3.8
GGAUCUUCUCGAUCUAACAAAAAAGACAAAUCUGCCACAAAGCUUGAGAGCAUCUUCGAAUGCAGAGGCGGCAGCCUUCGGUGGCGCGAUAGGGCCAACGUUCUCAACUAUGACACGCAAAACGCGUGCUCCGUUGAAUGGAGUUUAUCAUG [G59A C93G] | -3.78
GGAUCUUCUCGAUCUAACAAAAAAGACAAAUCUGCCACAAAGCUUGAGAGCAUCUUCGAAUGCAGAGGCGGCAGCCUUCGGUGGCGCGAUAGUGCCAACGUUCUCAACUAUGACACGCAAAACGCGUGCUCCGUUGAAUGGAGUUUAUCCUG [G59A C93U A150C] | ≤ -4.2
GGAUCUUCUCGAUCUAACAAAAAAGACAAAUCUGCCACAAAGCUUGAGAGCAUCUUCGAAUGCAGAGGCGGCAGCCUUCGGUGGCGCGAUAGCGCCAACGUUCUCAACUAUGAUACGCAAAACGCAUGCUCCGUUGAAUGGAGUUGAUCAUG [G59A C114U G126A U146G] | ≤ -4.2
GGAUCUUCUCGAUCUAACAAAAAAGACAAAUCUGCCACAAAGCUUGAGAGCAUCUUCGAAUGCAGAGGCGGCAGCCUUCGGUGGCGCGAUAGCGCCAACGUUCUCAACUAUGACACGAAAAACGCGUGCUCCGUUGAAUGGAGUUUAUCAUG [G59A C118A] | -0.536
GGAUCUUCUCGAUCUAACAAAAAAGACAAAUCUGCCACAAAGCUUGAGAGCAUCUUCGAAUGCAGAGGCGGCAGCCUUCGAUGGCGCGAUAGCGCCAAAGUUCUCAACUAUGACAUGCAAAACGCGUGCUCCGUUGAAUGGAGUUUAUCGUG [G59A G81A C99A C116U A150G] | ≤ -4.2
GGAUCUUCUCGAUCUAACAAAAAAGACAAAUCUGCCACAAAGCUUGAGAGCAUCUUCGAAUGCAGAGGCGGCAGCCUUCGGUUGCACGAUAGCGCCAACGUUCUCAACUAUGACACGCAAAACGCGUGCUCCAUUGAAUGGAGUUUAUCAUG [G59A G83U G86A G133A] | ≤ -4.2

Variant | polymerase ribozyme fitness (log ratio)
GGAUCUUCUCGAUCUAACAAAAAAGACAAAUCUGCCACAAAGCUUGAGAGCAUCUUCGAAUGCAGAGGCGGCAGCCUUCGGUGAUGCGAUAGCGCCAACGUUCUCGACUAUGAAACGCAAAACGCGUGCUCCGUUGAGUGGAGUUUAUCAUG [G59A G84A C85U A106G C114A A138G] | ≤ -4.2
GGAUCUUCUCGAUCUAACAAAAAAGACAAAUCUGCCACAAAGCUUGAGAGCAUCUUCGAAUGCAGAGGCGGCAGCCUUCGGUGUCGCGAUAGCGCCAGCGUUCUCAACUAUGACUCGCAAAACGCGUGCUCCGUUGAAUGGAGUUUAUCAUG [G59A G84U A98G A115U] | -3.58
GGAUCUUCUCGAUCUAACAAAAAAGACAAAUCUGCCACAAAGCUUGAGAGCAUCUUCGAAUGCAGAGGCGGCAGCCUUCGGUGGCACGAUAGCGCCAACGUUCUCAACUAUGACACGCAAAACGCGUGCUCCGUUGAAUGGAGUUUAUCAUG [G59A G86A] | -2.02
GGAUCUUCUCGAUCUAACAAAAAAGACAAAUCUGCCACAAAGCUUGAGAGCAUCUUCGAAUGCAGAGGCGGCAGCCUUCGGUGGCGCCAUAGCGCCAACGUUCUCAACUAUGACACGCAAAACGCGUGCUCCGUUGAAUGGAGUUUAUCAUG [G59A G88C] | -3.73
GGAUCUUCUCGAUCUAACAAAAAAGACAAAUCUGCCACAAAGCUUGAGAGCAUCUUCGAAUGCAGAGGCGGCAGCCUUCGGUGGCGCGAUAGCCCCAACGUUCUCAACUAUGACACGCAAAACGCGUGCUCCGUUGAAUGGAGUUUAUCAUG [G59A G94C] | -0.903
GGAUCUUCUCGAUCUAACAAAAAAGACAAAUCUGCCACAAAGCUUGAGAGCAUCUUCGAAUGCAGAGGCGGCAGCCUUCGGUGGCGCGAUAGCGCCAACGUUCUCAACUAUGACACGCAAAACUGGUGCUCCGUUUAAAGGAGUUAAUCAUG [G59A G124U C125G G136U U139A U146A] | ≤ -4.2
GGAUCUUCUCGAUCUAACAAAAAAGACAAAUCUGCCACAAAGCUUGAGAGCAUCUUCGAAUGCAGAGGCGGCAGCCUCCGGUGGCGCUAUAGCGCUAACGUUCUCAACGAUGACACGCAAAACGCGUGCUCCGUUGAAUCGAGUUUAUCAUG [G59A U78C G88U C96U U109G G140C] | ≤ -4.2
GGAUCUUCUCGAUCUAACAAAAAAGACAAAUCUGCCACAAAGCUUGAGAGCAUCUUCGAAUGCAGAGGCGGCAGCCUGCGGUGUCGCGAUAGCGCCAACGUUCUCAACUAUGACACGCAGAACUCGUGCUCCGUUGAAUGGAGUUUAUCAUG [G59A U78G G84U A120G G124U] | ≤ -4.2
GGAUCUUCUCGAUCUAACAAAAAAGACAAAUCUGCCACAAAGCUUGAGAGCAUCUUCGAAUGCAGAGGCGGCAGCCUGCGGUGGCGCCAUAGCGCCAACGUUCUCAACUAUGACACGCAAAACGCGUGCUCCGUUGAAUGGAGUUUAUCGUG [G59A U78G G88C A150G] | ≤ -4.2
GGAUCUUCUCGAUCUAACAAAAAAGACAAAUCUGCCACAAAGCUUGAGAGCAUCUUCGAAUGCAGAGGCGGCAGCCUUCGGUGGCGCGAGAGCGGCAACGUUCUCAACUAUGACACGCAAAACGCGUGCUCCGUUGAAUGGAGUUUAUCAUG [G59A U90G C95G] | ≤ -4.2
GGAUCUUCUCGAUCUAACAAAAAAGACAAAUCUGCCACAAAGCUUGAGAGCAUCUUCGAAUGCAGAGGCGGCAGCCUUCGGUGGCGCGAUAGCGCCAACGUUCUCAACUAUGACACGCAAAACGCGCGCUCCGUUGAAUGGAGUUUAUCAUG [G59A U127C] | -1.23
GGAUCUUCUCGAUCUAACAAAAAAGACAAAUCUGCCACAAAGCUUGAGAGCAUCUUCGCCUGCAGAGGCGGCAGCCUUCGGUGUCGCGAUAGCGCCAACGUUCUCUACUAUGACACGCAAAACGCGUGCACCGUUGAAUGGAGUUUAUCGUG [G59C A60C G84U A106U U130A A150G] | ≤ -4.2
GGAUCUUCUCGAUCUAACAAAAAAGACAAAUCUGCCACAAAGCUUGAGAGCAUCUUCGCGUGCAGAGGUGGCAGCCUUCGGUGGCGCGAUAGCGCCAACGUUCUCAACUAUGACACGCAAAACGCGUGCUCCGUUGAAUGGAGUUUAUCAUG [G59C A60G C69U] | -2.47
GGAUCUUCUCGAUCUAACAAAAAAGACAAAUCUGCCACAAAGCUUGAGAGCAUCUUCGCAUGCAGAGGCGGCUGCCUUCGGUGGCGCGAUAGGGCCAACGUUCUCAACUAUGGCAGGCAUAACGCGUGCUCCGUUGAAUGGAGUUUAUCCUG [G59C A73U C93G A113G C116G A120U A150C] | ≤ -4.2
GGAUCUUCUCGAUCUAACAAAAAAGACAAAUCUGCCACAAAGCUUGAGAGCAUCUUCGCAUGCAGAGGCGGCAGCCUUCGGUGGCGCGUUUGCGCCAACGCUCUCAACUAUGACACGCAAAACGCGUGCUCCGUUGAAUGGAGCUUAUCAUG [G59C A89U A91U U101C U144C] | ≤ -4.2
GGAUCUUCUCGAUCUAACAAAAAAGACAAAUCUGCCACAAAGCUUGAGAGCAUCUUCGCAUGCAGAGGCGGCAGCCUUCGGUGGCGCGAUAGCGCCUACGUUCUCAACUAUGACACGCAAAACGCGUGCUCCGUUGAAGGGAGUUUAUCAUG [G59C A97U U139G] | -0.518
GGAUCUUCUCGAUCUAACAAAAAAGACAAAUCUGCCACAAAGCUUGAGAGCAUCUUCGCAUGCAGAGGCGGCAGCCUUCGGUGGCGCGAUAGCGCCAACGUUCUCUACUAUGACACGCAAAACGCGUGCUCCGUUGAAUGGAGUUUAUCAUG [G59C A106U] | -0.917
GGAUCUUCUCGAUCUAACAAAAAAGACAAAUCUGCCACAAAGCUUGAGAGCAUCUUCGCAUGCAGAGGCGGCAGCCUUCGGUGGCGCGAUAGCGCCAACGUUCUCAACUGUGACACGCAAAACGCGUGCUCCGUUGAAUGGAGUUUAUCAUG [G59C A110G] | -3.79
GGAUCUUCUCGAUCUAACAAAAAAGACAAAUCUGCCACAAAGCUUGAGAGCAUCUUCGCAUGAAGAGGCGGCAGCCUUCGGUGGCGCAAUAGCGCCAACGUUCUCAACUAUGACACGCAAAACGCGUGCUCCGUUGAAUGAAGUUUAUCAUG [G59C C63A G88A G141A] | ≤ -4.2
